From paper PMC6919601, “Identification of Plasmodium dipeptidyl aminopeptidase allosteric inhibitors by high throughput screening” (PLoS ONE, 2019)
In all, about 110,000 compounds went through this assay and about 230 (0.21%) showed an effect of 50% or more. The list shows a part of the results.

The molecules below were run against DPAP1 (Plasmodium falciparum, UniProt Q8IIJ9) (assay: primary screen, percent inhibition; read by cleavage of a fluorogenic dipeptide substrate; higher = more effect of the substance).
DPAP1, sequence (Q8IIJ9 whole entry, looked up): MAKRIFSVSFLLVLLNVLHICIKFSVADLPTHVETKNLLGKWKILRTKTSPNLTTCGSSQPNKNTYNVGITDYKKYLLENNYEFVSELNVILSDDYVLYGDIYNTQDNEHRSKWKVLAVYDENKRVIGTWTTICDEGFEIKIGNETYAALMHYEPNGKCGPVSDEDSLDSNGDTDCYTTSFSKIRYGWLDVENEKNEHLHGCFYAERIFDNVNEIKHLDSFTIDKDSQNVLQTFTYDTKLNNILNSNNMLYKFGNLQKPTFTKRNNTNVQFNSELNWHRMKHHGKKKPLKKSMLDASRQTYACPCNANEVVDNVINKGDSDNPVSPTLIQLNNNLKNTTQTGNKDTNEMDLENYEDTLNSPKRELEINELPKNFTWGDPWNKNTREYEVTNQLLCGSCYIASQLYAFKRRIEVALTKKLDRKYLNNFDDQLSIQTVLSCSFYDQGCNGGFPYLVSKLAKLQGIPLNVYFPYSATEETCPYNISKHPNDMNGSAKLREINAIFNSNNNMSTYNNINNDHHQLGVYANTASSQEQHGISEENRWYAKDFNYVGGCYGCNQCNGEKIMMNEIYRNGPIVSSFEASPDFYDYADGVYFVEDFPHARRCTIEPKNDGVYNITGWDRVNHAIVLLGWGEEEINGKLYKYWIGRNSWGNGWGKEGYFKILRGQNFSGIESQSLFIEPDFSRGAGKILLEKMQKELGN
Parameters: species or system P. falciparum D10 trophozoite lysates; single well
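Note: 30 min substrate incubation versus DMSO and 10 µM JCP410 controls.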

Row | Structure (SMILES) | % Inhibition @ 10 uM [%]
1 | CC(C)(C)OC(=O)N1CCC(C(=O)N[C@@H](Cc2ccc3ccccc3c2)C(=O)N[C@@H](CCc2ccccc2)C(=O)CO)CC1 | -0.778
2 | CCC(C)NC(=O)Cn1nc(C)n2c(cc3cc(F)ccc32)c1=O (stereo not drawn) | -1.7
3 | O=C(C(c1ccccc1)c1ccccc1)N1CCN(Cc2ccncc2)CC1 | -8.33
4 | CCOCCCNC(=O)c1ccc(CSc2nc3ccncc3n2Cc2cccc(C)c2)cc1 | -0.637
5 | CCCCOC(=O)c1sc2nc3c(cc2c1N)C(=O)CC(C)(C)C3 | 0.343
6 | CCS(=O)(=O)N1CCC2(CC1)OC(=O)C(C)=C2C(=O)NCCOC | -0.0121
7 | Clc1ccc(C2=NCCn3cccc32)cc1Cl | -4.61
8 | CN(C)CCN(Cc1ccco1)C(=O)Cn1nc(Cc2ccncc2)c2ccccc2c1=O | 5.09
9 | c1cncc(CNc2ncnc3sc4c(c23)CCC4)c1 | -2.29
10 | Cc1c(NC(=O)c2ccc(C(=O)Nc3c(C)n(C)n(-c4ccccc4)c3=O)cc2)c(=O)n(-c2ccccc2)n1C | -1.77
11 | Cc1ccc(CSc2nc3ccncc3n2CC(=O)N(C)C2CCCCC2)cc1 | -6.01
12 | CC(C)(C)c1ccc(C(=O)Nc2ccc(O)cc2)cc1 | -0.545
13 | O=C(COc1ccc(Br)cc1Br)Nc1cccc(Cl)c1 | 4.12
14 | O=C1NC(=S)N(c2cccc(Cl)c2)C(=O)/C1=C/c1ccco1 | 6.66
15 | O=C(Nc1ccc(Cl)cc1)c1cc2n(n1)C(C(F)(F)F)CC(c1cccs1)N2 (stereo not drawn) | -2.6
16 | COc1ccc(OC)c(C2CC(=O)N=C(N)N2)c1 (stereo not drawn) | -2.41
17 | Cc1oc(-c2ccccc2)cc1C(=O)O | 2.65
18 | Cc1cccc(/C=C2/NC(=O)N(CC(=O)Nc3cccc(C)c3)C2=O)c1 | -9.2
19 | COCCNC(=O)CCCN1C(=O)CSc2nc(C)cc(C)c21 | 1.03
20 | COc1ccc(S(=O)(=O)N2CCN(Cc3ccccc3Br)CC2)cc1 | -2.34
21 | COC(=O)c1c(N)sc(C)c1-c1ccc(C)cc1 | -4.82
22 | Clc1ccc(Nc2nc(Cl)nc(NC3CCCCC3)n2)cc1 | 0.467
23 | CC(C)(C)NC(=O)c1sccc1C(=O)O | -0.469
24 | CSc1ncc(Cl)c(C(=O)Nc2nc3ccc(Cl)cc3s2)n1 | 2.19
25 | O=C(c1cc2c(Cl)ccc3c2n1CCO3)N1CCc2ccccc2C1 | 2.65

Row | Structure (SMILES) | % Inhibition @ 10 uM [%]
26 | O=C(NCCN1CCOCC1)c1sc2cc(Cl)ccc2c1Cl | 8.97
27 | O=C(O)C1C2CC3CC(C2)CC1(n1ncc(N2CCOCC2)c(Cl)c1=O)C3 (stereo not drawn) | 4.33
28 | CCOc1cc(C2C(C#N)=C(N)Oc3[nH]nc(-c4ccc5c(c4)OCO5)c32)ccc1O (stereo not drawn) | -7.3
29 | COc1cc(OC)nc(NC(=O)CSc2nc3ccccc3s2)n1 | -2.16
30 | Cc1nc2nc(C)c(CCC(=O)NCCc3c[nH]c4ccccc34)c(C)n2n1 | -2.25
31 | Nc1c(-c2nc(-c3ccc4c(c3)OCO4)no2)nnn1-c1cccc(C(F)(F)F)c1 | 4.95
32 | COCCNC(=O)c1ccc(CS(=O)(=O)c2ccc(Cl)cc2)o1 | 2.35
33 | CCCCSC1=C(C#N)C(c2ccccc2Cl)CC(=O)N1 (stereo not drawn) | 0.777
34 | O=C(O)C1NCCC1c1ccccc1 (stereo not drawn) | -1.66
35 | CN1C2CCC1CC(NC(=O)N1c3ccccc3CCc3ccccc31)C2 (stereo not drawn) | 0.986
36 | CCn1cc(C(=O)NCCOC)c2cc(OC)c(OC)cc2c1=O | -4.86
37 | O=C(Nc1cccc2c1C(=O)c1ccccc1C2=O)c1cccc(Br)c1 | 0.317
38 | CN(C)CCCNC(=S)N(Cc1ccccc1)Cc1ccccc1 | 5.23
39 | COc1ccc(OC)c(C2Nc3ccccc3N=C3CC(C)(C)CC(O)=C32)c1 (stereo not drawn) | 2.67
40 | CC(=O)Nc1sc2c(c1C(=O)Nc1cccc(Cl)c1)CCCCC2 | -6.25
41 | O=C(C1CCN(c2nnc(N3CCCC3=O)s2)CC1)N1CCc2ccccc2C1 | -1.08
42 | CCOc1cccc(C(=O)Nc2ccc(NC(=O)c3ccco3)c(OC)c2)c1 | -4.01
43 | N#CCNC(=O)[C@H](Cc1cccs1)NC(=O)OCc1ccccc1 | -8.82
44 | Cc1ccccc1C(=O)c1cccn1CC(=O)NCCCN1CCCC1=O | 5.65
45 | Cc1cccc(C(=O)N2CCOCC2)c1 | -0.34
46 | Cc1ccc(S(=O)(=O)N2CCCC(C(=O)NCc3ccc(F)cc3)C2)cc1 (stereo not drawn) | 0.387
47 | Cc1ccc(-n2ncc(C(=O)Nc3ccccn3)c2C2CCN(C(=O)OC(C)(C)C)CC2)c(C)c1 | 0.536
48 | COc1ccc(S(=O)(=O)NCc2cn3c(C)csc3n2)cc1F | -0.72
49 | CCSc1ncc(Cl)c(C(=O)Nc2nc3ccc(F)cc3s2)n1 | 3.77
50 | Cc1cccn(C(=O)C2CCCCC2)/c1=N/C(=O)C1CCCCC1 | -1.1

Row | Structure (SMILES) | % Inhibition @ 10 uM [%]
51 | Cc1cc(NS(=O)(=O)c2ccc(NC(=O)c3ccc(Cl)cc3)cc2)no1 | 0.408
52 | CCOCc1cnc(C)nc1NCC(=O)c1c(C)n(C)c2ccc(OC)cc12 | -11.3
53 | CCOc1ccccc1N1CCN(C(=O)C2CCCCC2)CC1 | -0.622
54 | Fc1ccccc1N1CCN(Cc2ccc(Cl)cc2)CC1 | 3.16
55 | CCc1ccc(/C=C2\C(=N)N3N=C(N4CCCCC4)SC3=NC2=O)cc1 | 4.88
56 | CN1CCN(C2=C(Cl)C(=O)N(C3CCCCC3)C2=O)CC1 | 1.58
57 | COc1ccc(C2=NN(c3nc(-c4ccccc4)cs3)C(c3ccco3)C2)cc1 (stereo not drawn) | -2.39
58 | O=C(COc1ccc(Cl)cc1S(=O)(=O)NCCc1cccs1)N1CCOCC1 | -6.13
59 | OCC1CCCCN1Cc1ccc2c(c1)OCO2 (stereo not drawn) | 2.65
60 | CC(CCc1ccccc1)Nc1nc2c(S(=O)(=O)c3ccccc3)nnn2c2ccccc12 (stereo not drawn) | -0.285
61 | COCCn1cnc2cc(C)c(C)cc21 | 0.0289
62 | Cc1oc(-c2cccs2)nc1CSCC(=O)N1CCC2(CC1)OCCO2 | 3.99
63 | O=C(C1=C(O)C(=O)N(c2ccccn2)C1c1cccnc1)c1ccccc1 (stereo not drawn) | 2.5
64 | COc1ccc(/C=C/C(=O)c2c(O)cc(C)oc2=O)cc1OC | 3.31
65 | C=CCn1c(SCC)nc2c(c1=O)C1(CCCC1)Cc1ccccc1-2 | 6.06
66 | O=C(/C=C(\O)c1ccc(Br)cc1)C(F)(F)F | 5.38
67 | O=C1c2cccnc2Oc2ccc(Cl)cc2N1Cc1ccc(F)cc1 | -13.4
68 | CC1CC(C)CN(CCCNC(=O)CCn2nc(-c3ccccc3)ccc2=O)C1 (stereo not drawn) | 1.62
69 | CCC(C)NC(=O)CCN(Cc1c(Cl)cccc1Cl)S(=O)(=O)c1ccc(C)cc1 (stereo not drawn) | 6.13
70 | Cc1ccc(OCC(=O)Nc2ccc3c(c2)OCO3)cc1 | 1.84
71 | CCOC(=O)C1CCCCN1CC[C@@H](C)CCC=C(C)C (stereo partly drawn) | -6
72 | CCc1ccc(C2C(C#N)=C(N)OC3=C2C(=O)CCC3)s1 (stereo not drawn) | -6.22
73 | CC(=C1C(=O)c2ccccc2C1=O)N1CCN(C/C=C/c2ccccc2)CC1 | -3.74
74 | CC(C)CC(=O)N1CCN(C(=O)c2ccco2)CC1 | -2.37
75 | Cn1c2ccc(Br)cc2c2nc3ccccc3nc21 | 2.83

Row | Structure (SMILES) | % Inhibition @ 10 uM [%]
76 | CCOc1cc(/C=C2\SC(=O)NC2=O)ccc1OCC#N | 2.95
77 | COc1ccc(C(=O)C2=C(O)C(=O)N(CCCN(C)C)C2c2ccncc2)c(C)c1 (stereo not drawn) | -1.61
78 | Cc1ccc(C)c(NC(=O)Cn2cnc3ccccc3c2=O)c1 | 0.431
79 | N[C@@H](CC1CCCCC1)C(=O)N[C@@H](CCc1ccccc1)CS(=O)(=O)NCCNc1ccccc1 | -0.214
80 | NC(=O)c1ccccc1NC(=O)C1CC2CCC1C2 (stereo not drawn) | 3.48
81 | CC(C)(C)c1ccc(S(=O)(=O)/N=C2\C=CC(=O)c3ccccc32)cc1 | 3.54
82 | CCCCNC(=O)C1CCN(S(=O)(=O)N2CCC3(CC2)OCCO3)CC1 | -2.99
83 | Cc1[nH]nc2c1C(c1cc(COc3ccccc3Br)c(C)s1)C(C#N)=C(N)O2 (stereo not drawn) | 4.7
84 | CCN1CCN(Cc2ccc3ccccc3c2)CC1 | 3.25
85 | Cn1c(SCC#CCO)nc2ccccc2c1=O | -18.6
86 | CC12C(=O)N(c3cccc(C(=O)O)c3)C(=O)C1C1C=CC2C1 (stereo not drawn) | 0.992
87 | CCOC(=O)N1CCC(NC(=O)CSCc2nc(-c3ccc(OC)cc3)oc2C)CC1 | 7.08
88 | CN(C(=O)CCn1cnc2onc(-c3ccc(F)cc3)c2c1=O)C1CCCCC1 | -2.34
89 | COc1cccc(CN2CCN(Cc3cccc(Cl)c3)CC2)c1OC | -0.0938
90 | O=C(Cc1cccs1)Nc1c(C(=O)N2CCN(c3ncccn3)CC2)oc2ccccc12 | -7.16
91 | COc1ccc(S(=O)(=O)N(CC(=O)N2CCCCC2)c2ccc(C)cc2)cc1 | -2.28
92 | COc1ccc(CCNC(=O)c2ccc(CNC(=O)c3ccc4c(c3)OCO4)cc2)cc1OC | 1.42
93 | COc1ccc(C=C2C(=O)c3ccccc3C2=O)c2ccccc12 | -1.47
94 | Cc1ccccc1S(=O)Cc1ccc(C(=O)NC(C)C)o1 (stereo not drawn) | 0.401
95 | CCCCNC(=O)c1ccc(CS(=O)Cc2ccc(C)cc2)o1 (stereo not drawn) | -4.82
96 | COc1ccc2[nH]c3c(=O)n(CCCCCC(=O)NCCNC(C)=O)c(=S)[nH]c3c2c1 | -5.79
97 | O=C(c1ccc(Br)o1)N1N=C(c2ccc(Cl)cc2)CC1c1ccco1 (stereo not drawn) | 9.48
98 | Cc1ccc2cc(CCN3C(=O)c4ccccc4C3=O)c(O)nc2c1C | -4.81
99 | CCC(C)C(NC(=O)OCc1ccccc1)C(=O)NC(CCCCNC(=O)OCc1ccccc1)C(=O)CO (stereo not drawn) | 5.05
